Experimental data taken from the supplement of paper PMC10320760.
The data scatter; read single values as rough.

B1: Ydj1; a variant is named by its letters at X, in order (parent)
chain: MVKETKFYDILGVPVTATDVEIKKAYRKCALKYHPDKNPSEEAAEKFKEASAAYEILSDPEKRDIYDQFGEDGLSGAGGAGGFPGGGFGFGDDIFSQFFGAGGAQRPRGPQRGKDIKHEISASLEELYKGRTAKLALNKQILCKECEGRGGKKGAVKKCTSCNGQGIKFVTRQMGPMIQRFQTECDVCHGTGDIIDPKDRCKSCNGKKVENERKILEVHVEPGMKDGQRIVFKGEADQAPDVIPGDVVFIVSERPHKSFKRDGDDLVYEAEIDLLTAIAGGEFALEHVSGDWLKVGIVPGEVIAPGMRKVIEGKGMPIPKYGGYGNLIIKFTIKFPENHFTSEENLKKLEEILPPRIVPAIPKKATVDECVLADFDPAKYNRTRASRGGANYDSDEEEQGGEGVQCXXX

Variants of: B1
Test: enrichment factor, frequency at 37 °C / frequency at 25 °C (thermotolerance selection) (ratio); higher = more growth at 37 °C, higher likelihood of farnesylation
Conditions: with Saccharomyces cerevisiae ydj1Δ (yWS304); selective temperature 37 °C; reference temperature 25 °C
Experimental: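 Pooled library of all 8,000 Ydj1-CXXX C-terminal motif variants (native CASQ replaced by C + three variable residues, one codon per amino acid) expressed from a CEN plasmid in S. cerevisiae ydj1Δ (yWS304). The library was grown in SC-Ura liquid to A600 ~2 (~8 generations) at permissive 25 °C or selective 37 °C. Reads from 8 and 7 replicates were pooled and variants counted by NGS. Enrichment factor = frequency at 37 °C / frequency at 25 °C, with a +1 correction; it reports Ydj1-dependent thermotolerance, used as a read-out of farnesylation by yeast FTase.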

Variant | enrichment factor
WHQ | 1.75
YHQ | 4.5
DHQ | 1.6
EHR | 0.157
AHR | 0.129
FHR | 0.161
GHR | 0.108
HHR | 0.102
IHR | 0.135
KHR | 0.152
LHR | 0.171
MHR | 0.0975
NHR | 0.226
PHR | 0.201
QHR | 0.166
CHR | 0.147
RHR | 0.139
SHR | 0.169
THR | 0.122
VHR | 0.15
WHR | 0.299
YHR | 0.154
DHR | 0.145
EHS | 1.49

Variant | enrichment factor
AHS | 1.8
FHS | 1.59
GHS | 1.25
HHS | 2.37
IHS | 1.86
KHS | 1.63
LHS | 1.42
MHS | 2.25
NHS | 1.82
PHS | 1.86
QHS | 2.33
CHS | 1.06
RHS | 1.6
SHS | 2.08
THS | 1.59
VHS | 2.53
WHS | 1.8
YHS | 1.69
DHS | 0.399
EHT | 1.33
AHT | 1.81
FHT | 1.43
GHT | 1.01
HHT | 1.97

Variant | enrichment factor
IHT | 2.47
KHT | 1.81
LHT | 1.47
MHT | 2.26
NHT | 1.71
PHT | 1.92
QHT | 2.11
CHT | 1.29
RHT | 1.79
SHT | 1.74
THT | 1.6
VHT | 2.2
WHT | 2.04
YHT | 2.21
DHT | 0.186
EHV | 2.02
AHV | 1.65
FHV | 2.27
GHV | 1.29
HHV | 2.33
IHV | 2.12
KHV | 1.85
LHV | 1.94
MHV | 1.95

Variant | enrichment factor
NHV | 2.53
PHV | 1.54
QHV | 2.22
CHV | 0.869
RHV | 1.49
SHV | 2.61
THV | 2.38
VHV | 2.15
WHV | 1.65
YHV | 2.84
DHV | 0.624
EHW | 0.357
AHW | 1.42
FHW | 0.471
GHW | 0.193
HHW | 0.384
IHW | 1.3
KHW | 0.605
LHW | 0.895
MHW | 0.385
NHW | 0.421
PHW | 0.892
QHW | 1.29
CHW | 0.458

Variant | enrichment factor
RHW | 0.518
SHW | 0.533
THW | 0.984
VHW | 1.59
WHW | 1.38
YHW | 0.52
DHW | 0.196
EHY | 1.34
AHY | 1.36
FHY | 0.497
GHY | 0.185
HHY | 0.494
IHY | 1.72
KHY | 0.248
LHY | 1.07
MHY | 0.675
NHY | 0.579
PHY | 1.43
QHY | 1.03
CHY | 0.693
RHY | 0.375
SHY | 0.635
THY | 1.72
VHY | 2.2

Variant | enrichment factor
WHY | 1.85
YHY | 0.285
DHY | 0.158
EIA | 2.52
AIA | 0.69
FIA | 1.62
GIA | 0.807
HIA | 1.69
IIA | 0.927
KIA | 2.23
LIA | 1.51
MIA | 1.56
NIA | 2.32
PIA | 1.08
QIA | 2.94
CIA | 0.515
RIA | 1.13
SIA | 1.16
TIA | 0.881
VIA | 0.406
YIA | 2.32
DIA | 1.32
EIC | 2.03
AIC | 0.756

Variant | enrichment factor
FIC | 1.74
GIC | 0.72
HIC | 0.978
IIC | 0.585
KIC | 1.01
LIC | 1.53
MIC | 0.724
NIC | 0.61
PIC | 0.7
QIC | 1.47
CIC | 0.607
RIC | 0.982
SIC | 0.526
TIC | 0.901
VIC | 0.759
WIC | 5.21
YIC | 1.74
DIC | 1.69
EID | 1.54
AID | 1.66
FID | 3.39
GID | 1.63
HID | 2.39
IID | 1.35

Variant | enrichment factor
KID | 1.65
LID | 1.57
MID | 1.35
NID | 1.95
PID | 1.98
QID | 2.41
CID | 1.96
RID | 2.08
SID | 1.95
TID | 3.26
VID | 1.18
WID | 2.17
YID | 2.25
DID | 1.29
EIE | 1.56
AIE | 2.37
FIE | 1.7
GIE | 1.75
HIE | 3.94
IIE | 0.993
KIE | 2.32
LIE | 1.61
MIE | 0.902
NIE | 2.81

Variant | enrichment factor
PIE | 1.89
QIE | 2.3
CIE | 1.53
RIE | 1.9
SIE | 2.11
TIE | 2.58
VIE | 1.76
WIE | 2.65
YIE | 2.04
DIE | 1.72
EIF | 2.32
AIF | 1.29
FIF | 2.32
GIF | 0.772
HIF | 1.27
IIF | 1.07
KIF | 0.891
LIF | 2.32
MIF | 1.16
NIF | 1.88
PIF | 0.742
QIF | 2.61
CIF | 0.806
RIF | 0.745

Variant | enrichment factor
SIF | 0.862
TIF | 1.08
VIF | 0.945
WIF | 1.93
YIF | 3.47
DIF | 1.08
EIG | 2.32
AIG | 0.618
FIG | 2.32
GIG | 2.71
HIG | 0.869
IIG | 1.69
KIG | 1.45
LIG | 1.49
MIG | 0.386
NIG | 3.6
PIG | 1.21
QIG | 3.65
CIG | 0.796
RIG | 0.975
SIG | 0.772
TIG | 0.869
VIG | 0.579
WIG | 0.772

Variant | enrichment factor
YIG | 1.39
DIG | 1.42
EIH | 1.43
AIH | 3.88
FIH | 2.9
GIH | 1.98
HIH | 1.38
IIH | 1.16
KIH | 1.32
LIH | 2.12
MIH | 0.695
NIH | 3.47
PIH | 1.69
QIH | 2.56
CIH | 0.597
RIH | 1.54
SIH | 2.2
TIH | 3.01
VIH | 1.16
WIH | 2.32
YIH | 2.32
DIH | 2.62
EII | 1.26
AII | 0.709

Variant | enrichment factor
FII | 0.463
GII | 0.834
HII | 1.34
III | 0.956
KII | 0.588
LII | 1.25
MII | 0.743
NII | 1.09
PII | 0.833
QII | 1.24
CII | 1.1
RII | 0.811
SII | 0.931
TII | 0.734
VII | 0.64
WII | 1.54
YII | 0.463
DII | 1.41
EIK | 1.92
AIK | 2.45
FIK | 2.32
GIK | 2
HIK | 3.36
IIK | 3.94

Variant | enrichment factor
KIK | 2.11
LIK | 1.85
MIK | 2.13
NIK | 2.13
PIK | 1.23
QIK | 3.38
CIK | 3.12
RIK | 1.47
SIK | 3.58
TIK | 1.31
VIK | 1.58
WIK | 1.47
YIK | 2.54
DIK | 1.55
EIL | 2.9
AIL | 0.621
FIL | 1.74
GIL | 1.62
HIL | 1.13
IIL | 0.78
KIL | 1.54
LIL | 0.764
MIL | 0.858
NIL | 1.08

Variant | enrichment factor
PIL | 0.824
QIL | 1.03
CIL | 1.31
RIL | 0.667
SIL | 0.524
TIL | 0.806
VIL | 0.884
WIL | 1.74
YIL | 1.51
DIL | 1.18
EIM | 1.8
AIM | 0.822
FIM | 2.19
GIM | 1.19
HIM | 0.97
IIM | 1.21
KIM | 1.87
LIM | 1.2
MIM | 0.907
NIM | 1.12
PIM | 0.924
QIM | 1.2
